According to the BET-seq Pho4 binding data (Le et al. 2018):
Some of the results follow. These are noisy estimates, calculated here from bound and input reads.

Biological target: T1, Pho4 (S. cerevisiae) (UniProt P07270)
T1 sequence: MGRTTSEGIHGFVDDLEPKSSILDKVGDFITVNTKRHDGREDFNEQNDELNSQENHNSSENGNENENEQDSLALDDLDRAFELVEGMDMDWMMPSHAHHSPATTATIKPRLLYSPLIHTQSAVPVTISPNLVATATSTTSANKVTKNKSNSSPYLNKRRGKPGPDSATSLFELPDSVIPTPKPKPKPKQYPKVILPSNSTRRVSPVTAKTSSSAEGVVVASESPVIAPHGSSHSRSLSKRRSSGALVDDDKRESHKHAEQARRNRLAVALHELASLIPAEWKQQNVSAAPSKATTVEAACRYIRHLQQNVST
Test: relative binding free energy (BET-seq); higher = weaker binding
Details: reference: library average

Sequence | relative binding free energy [kcal/mol]
GTTTCCACGTGTGTGC | 0.26
GGACTCACGTGTATAT | 0.28
CGCATCACGTGGGTGG | -0.04
GGTGTCACGTGGCTGA | 0
AGAGGCACGTGCGGCG | -0.21
CGGGTCACGTGTGTTA | 0.11
GAATGCACGTGGTTCT | 0.11
GTTGGCACGTGTGTCA | 0.01
GTAAGCACGTGGTGTT | -0.1
TATTACACGTGAAAGG | 0.29
CTTGACACGTGGGAGT | -0.07
TGCTACACGTGGAGGG | 0.08
CTTGGCACGTGGTTCG | 0
TGGTTCACGTGATTCT | 0.14
TGCTTCACGTGCTTTG | 0.26
AAGAGCACGTGGGTGT | -0.24
ATGGACACGTGGCGTA | -0.16
TTGGGCACGTGCGAAT | -0.19
TACCGCACGTGTGGGT | -0.02
TTTTTCACGTGATCAG | 0.25
TAGTACACGTGAGGCG | 0.24
TTATTCACGTGGTGAT | 0.23
GTTGTCACGTGGAGTT | 0.23

Sequence | relative binding free energy [kcal/mol]
ATTGGCACGTGGCGGT | -0.18
TTTTGCACGTGGCAGA | -0.03
GAGCTCACGTGGGGGA | 0.17
ATGCACACGTGTTTGT | -0.06
TTTATCACGTGTTGAA | 0.11
TAAGGCACGTGGTAGT | -0.3
GTCGTCACGTGTAGGC | 0.11
TTTTGCACGTGAAGTC | 0.29
GTTATCACGTGCCTTT | 0.17
TATTTCACGTGAATGA | 0.4
GTAGACACGTGGGTTG | -0.19
TTTAACACGTGGGAGC | -0.03
GAGTACACGTGGCTGG | 0.12
AAGGACACGTGAGATT | 0.36
CGGTGCACGTGATGCG | 0.03
GAGTGCACGTGGGAGC | -0.03
TGCTTCACGTGGTGTA | 0.06
GGAGTCACGTGAGAAG | 0.39
AGAGGCACGTGGAAGA | 0
TGAGGCACGTGAATAG | 0.08
TAAGGCACGTGGTTCA | -0.27
TAATTCACGTGATGGC | 0.33
TATCGCACGTGGGGCT | -0.25

Sequence | relative binding free energy [kcal/mol]
CAGAGCACGTGTGGGT | -0.04
AAATTCACGTGTTGGG | 0.18
GATTTCACGTGAGGTT | 0.46
ATAGACACGTGTGTCG | -0.08
GTAATCACGTGGTTAA | 0.07
GTGGGCACGTGATAGT | -0.08
TCGTGCACGTGGATTT | 0.17
TAAAACACGTGTTTTT | 0.02
TATCTCACGTGTTCTT | 0.24
TGAGTCACGTGTGAAT | 0.32
TGGTCCACGTGGGTTC | -0.06
GTCAGCACGTGGCGTG | -0.05
CTGTTCACGTGTCAGG | 0.2
TATGGCACGTGTAGGC | 0.07
GATGACACGTGAGTAG | 0.31
GGCAGCACGTGGTTTG | -0.08
ATATTCACGTGTGTTT | 0.21
ATCGGCACGTGGGTGA | -0.3
ATGGACACGTGTATTT | 0.19
TTTTACACGTGCCTGG | 0.04
GCTGGCACGTGTGGCG | 0.03
GGTAGCACGTGCATGA | 0.01
GGGTTCACGTGAGAAA | 0.35

Sequence | relative binding free energy [kcal/mol]
TGTAGCACGTGGTTAC | -0.1
AGGGTCACGTGTATAT | 0.13
AGCGCCACGTGGTGGA | -0.06
TGTGGCACGTGATGGA | 0.04
TGGGTCACGTGAGTAC | 0.2
GGTTGCACGTGTAGAC | -0.05
GGTCGCACGTGCGTGT | -0.11
CGTTTCACGTGTATTT | 0.2
TGGCACACGTGTGTGG | -0.04
GTGGTCACGTGGGCCG | 0.01
ATTAGCACGTGAAATG | 0.21
CTTTTCACGTGTAGTA | 0.28
GTGTCCACGTGGGAGC | 0.05
ATAATCACGTGCTGTG | 0.07
TAATACACGTGAAGTA | 0.42
AGATGCACGTGAGGGG | 0.29
TCGTTCACGTGCGGAG | 0.41
TTTCTCACGTGGGGAT | 0.12
GGGCTCACGTGAGTGT | 0.39
ATGTACACGTGGCGTG | -0.06
AGGGTCACGTGCGGGA | 0.09
CTGTGCACGTGTGTAA | 0
TGATGCACGTGCGGTC | -0.06

Sequence | relative binding free energy [kcal/mol]
TGAATCACGTGGGTTA | 0.1
AAGATCACGTGTGGGT | 0.15
GGAAGCACGTGGCTGG | -0.08
ATAAACACGTGGTCGT | 0.04
TTGTGCACGTGCGTAT | -0.12
GAATGCACGTGTTTGA | 0.08
TCGGCCACGTGTGTGA | 0.05
GGGCGCACGTGGAGCG | -0.02
TGGTTCACGTGAGCGC | 0.3
CGGTGCACGTGAGGTG | 0.22
TGTCGCACGTGAAGTA | 0.22
AGATTCACGTGATTAT | 0.25
GGTAGCACGTGGCGAT | -0.13
GTAAACACGTGCGGGG | -0.02
TATCTCACGTGGATGG | 0.26
GTATACACGTGCATGT | 0.01
AGGCTCACGTGGGAGT | 0.15
AAATTCACGTGATGCT | 0.39
TACGGCACGTGTTATG | -0.21
AGCAACACGTGGTGTT | -0.08
TGTAACACGTGTGGTT | 0.15
GTGGTCACGTGGCAAG | 0.02
GATTACACGTGCTGTG | 0.24
